Measured values taken from PubChem BioAssay AID488969 (Vanderbilt High Throughput Screening Facility, 2010).
Over roughly 110,000 compounds, “z-score” has its median near -0.1; the highest 2% begin near 2. The list shows a part of the results. The source made the active and inactive calls.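 Rule for the calls: active = z-score in the third read window above 3 or below -3; inactive = the rest.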

Each compound was assayed against Metabotropic glutamate receptor 8 (Rattus norvegicus) (UniProt P70579) (assay: rat mGluR8 modulators via GIRK flux, primary screen, cell-based, thallium flux, HTS (AID 488969)). Details: HEK293 rat mGluR8, GIRK (G protein-gated inwardly rectifying potassium channel) thallium flux, FluoZin2; at 10 µM; stronger effect = higher value; submaximal glutamate (EC20) added with thallium.
UniProt P70579, sequence (P70579 whole entry, looked up): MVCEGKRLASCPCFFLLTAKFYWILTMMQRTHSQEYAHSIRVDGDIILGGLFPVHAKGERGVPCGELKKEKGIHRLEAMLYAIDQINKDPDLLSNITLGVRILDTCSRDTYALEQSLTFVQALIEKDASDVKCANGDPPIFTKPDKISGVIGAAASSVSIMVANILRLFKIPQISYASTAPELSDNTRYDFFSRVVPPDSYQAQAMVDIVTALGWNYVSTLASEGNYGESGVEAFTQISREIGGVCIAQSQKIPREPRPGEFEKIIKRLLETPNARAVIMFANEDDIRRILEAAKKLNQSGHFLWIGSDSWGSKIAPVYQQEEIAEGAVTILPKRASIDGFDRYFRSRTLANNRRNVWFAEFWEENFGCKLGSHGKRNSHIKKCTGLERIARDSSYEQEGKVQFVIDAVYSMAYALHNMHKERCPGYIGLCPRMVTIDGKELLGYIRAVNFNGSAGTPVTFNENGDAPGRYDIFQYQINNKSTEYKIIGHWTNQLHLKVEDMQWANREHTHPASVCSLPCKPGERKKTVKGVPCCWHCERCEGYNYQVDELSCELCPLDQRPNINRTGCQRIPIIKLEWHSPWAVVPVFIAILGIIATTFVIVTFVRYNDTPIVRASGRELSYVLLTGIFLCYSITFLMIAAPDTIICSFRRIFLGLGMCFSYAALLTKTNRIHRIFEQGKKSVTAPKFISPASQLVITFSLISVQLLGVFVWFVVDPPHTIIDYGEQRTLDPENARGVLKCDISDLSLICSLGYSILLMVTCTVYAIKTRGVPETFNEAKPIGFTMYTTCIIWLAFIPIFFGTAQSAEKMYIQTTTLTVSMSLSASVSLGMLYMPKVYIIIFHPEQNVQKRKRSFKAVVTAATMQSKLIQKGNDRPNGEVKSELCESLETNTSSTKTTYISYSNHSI

SMILES | z-score
O=C(NCc1cccnc1)c1cnc2n(c1=O)CCS2 | 0.35
CCc1cc(=O)oc2cc(C)cc(O)c12 | -0.13
Cc1ccc(OCc2nnc(SCC(=O)N3CCOCC3)n2C)cc1 | 0.382
COc1ccc(-c2ccnc(SCC(=O)c3ccc(OC)c(OC)c3)n2)cc1 | -0.302
O=c1cc(-c2cccc3ccccc23)[nH][nH]1 | -0.261
COc1ccc(C(NC=O)c2cc(OC)c(OC)cc2Br)cc1OC (configuration not stated) | 0.382
O=C(CCn1c(=O)[nH]c2ccsc2c1=O)Nc1ccc(F)c(F)c1 | -0.063
Cc1ccc(-c2nc3ncccn3c2Nc2ccc3c(c2)OCCO3)cc1 | 0.0376
Cc1cccc(OC(=O)c2ccc3nccnc3c2)c1 | -0.362
Cc1cc(NS(=O)(=O)c2ccc(NC(=S)NC(=O)c3ccc(F)cc3Cl)cc2)no1 | 0.527
CCOc1ccc(/C=C/C(=O)Nc2ccc(OC)cc2[N+](=O)[O-])cc1 | 0.211
Cn1cc(C(=O)c2cccc(Cl)c2Cl)cc1C(=O)O | -0.377
CCOc1ccc(NC(=O)c2ccccc2OCC(=O)c2ccccc2)cc1 | 0.143
CCN(CC)CCCN(Cc1cc2ccc(C)c(C)c2[nH]c1=O)C(=O)NC1CCCCC1 | -0.0801
O=C(CSc1nnc(-c2ccco2)n1-c1ccccc1)N1CCN(C(=O)c2ccco2)CC1 | -1.36
CC1CN(S(=O)(=O)c2cccc3nsnc23)CC(C)O1 (configuration not stated) | 0.784
O=C(CCS(=O)(=O)c1ccc(Cl)cc1)NCCN1C(=O)S/C(=C\c2ccccc2F)C1=O | -0.162
Cc1ccc(C)c(NS(=O)(=O)c2ccc(OCC(=O)N3CCCC3)cc2)c1 | -0.386
Cc1ccc(-n2c(SCC(=O)Nc3cccc(S(=O)(=O)NC4=NCCCCC4)c3)nc3ccccc3c2=O)cc1 | -0.48
C=CCNC(=O)c1ccc(C)cc1Cl | 0.255
Cc1cccc2sc(NC(=O)c3ccc(Cl)s3)nc12 | 1.31
COC(=O)c1ccc(Oc2ccc3nnc(C)n3n2)cc1 | -0.431
Cc1cc(C)c(C#N)c(SCS(=O)Cc2ccccc2)n1 (configuration not stated) | -0.254

SMILES | z-score
O=C(Nc1ccccc1N1CCOCC1)c1ccc(Br)o1 | 0.135
COc1ccc(/C=C2/Sc3ccc(C(=O)N4CCc5ccccc5C4)cc3NC2=O)cc1 | -0.000126
CC1(C)CCC(=O)N(c2ccccc2)C1=O | -0.37
O=C(/C=C/c1c(Cl)cccc1Cl)n1cccn1 | -0.0919
Cc1cc(NC(=O)CSc2nc3ccccc3c(=O)n2CCCC(=O)NCc2ccccc2)n[nH]1 | -0.712
O=C(c1ccc(Cl)cc1Cl)c1ncc(C(F)(F)F)cc1Cl | -0.0716
Cc1ccc(OCC(=O)N2CCN(c3ccc([N+](=O)[O-])c(N4CCOCC4)c3)CC2)cc1 | -0.597
CCN1CCCC1CNC(=O)c1cc2c(C)nc3ccccc3c2o1 (configuration not stated) | 0.215
COc1ccc(N2C(=O)CC(NCc3ccc(F)cc3)C2=O)cc1 (configuration not stated) | -0.0142
COc1cc(C(=O)NC2CC3CCCC(C2)N3CC(=O)Nc2ccccc2)cc(OC)c1OC (configuration not stated) | -2.03
O=C1NC(CCc2ccccc2)C(=O)N1Cc1ccccc1Cl (configuration not stated) | -2.13
CC1(C)CC2(CC(c3ccccc3)Oc3cc(O)ccc32)NC(=S)N1 (configuration not stated) | 0.076
CCc1nnc(NC(=O)C2c3ccccc3Oc3ccccc32)s1 | 0.0278
COc1ccc(NC(=S)N2CCN(C(c3ccccc3)c3ccccc3)CC2)cc1OC | -0.136
COc1ccc(CN2C(=O)CN(C3CCCCCC3)C(=O)C2c2ccc(F)cc2)cc1 (configuration not stated) | -0.0754
Clc1cccc2sc(N3CCCCC3)nc12 | -1.09
Cc1cn(C(=O)c2ccccc2)c(=S)n1-c1ccc(Br)cc1 | -0.326
Cc1nc2nc(-c3ccc(Cl)cc3)[nH]n2c(=O)c1Cc1ccccc1 | -0.0342
O=C(CCCN1C(=O)c2cccc3cccc(c23)C1=O)N1CCc2ccccc2C1 | -0.445
O=C(NC(=S)NC(c1ccccc1)c1ccncc1)c1ccccc1 (configuration not stated) | -0.741
Cc1ccc(C)c(NC(=O)C(Sc2nnc(-c3cccs3)o2)c2ccccc2)c1 (configuration not stated) | -0.472
Cc1ccccc1NC(=O)CSc1nc2ccccc2c2nc(CCn3cncc3C)nn12 | -0.225
c1coc(CN2CCN(C(c3cccs3)c3nnnn3C3CCCC3)CC2)c1 (configuration not stated) | -1.93

SMILES | z-score
O=C(CSc1nc2ccccc2n1S(=O)(=O)c1ccccc1)N1CCCCC1 | -0.275
O=C(Nc1ccc2oc(=O)ccc2c1)c1ccc(-c2ccc(Cl)cc2)o1 | -0.947
CCOC(=O)c1sc(NS(=O)(=O)c2ccc(NC(C)=O)cc2)nc1C | -0.427
CN(CC(=O)NCC1CCCO1)S(=O)(=O)c1cc(Cl)ccc1Cl (configuration not stated) | 0.0349
O=c1c2cc(Cl)ccc2[nH]c(=S)n1Cc1cccs1 | active: 4.2
COc1ccc(CC(C)N2CCN(c3ccccc3)CC2)cc1OC (configuration not stated) | -0.169
COCCCNC(=O)c1sc2ncnc(N3CCc4ccccc4C3)c2c1C | -1.13
Cc1ccc(C(=O)N2C(=S)C(c3ccc(F)cc3)=NC23CCN(C)CC3)cc1 | -0.149
CCOC(=O)C1CCCN(C(=O)c2sc3nc(-c4ccccc4)cn3c2C)C1 (configuration not stated) | -0.904
CCOC(=O)CSC(C)C(=O)Nc1nnc(C(C)C)s1 (configuration not stated) | -0.394
OC(COCc1cccs1)CN1CCN(c2cccc(C(F)(F)F)c2)CC1 (configuration not stated) | 1.07
CC(=O)Nc1ccc(S(=O)(=O)Nc2c(C)nn(-c3ccccc3)c2C)cc1 | -0.72
Cc1ccc(-c2ccccc2)n1-c1ccc(C(=O)O)cc1 | 0.116
Cc1cc(C)cc(NC(=O)CC23CC4CC(C2)CC(n2nnc(C)n2)(C4)C3)c1 | -1.43
Cc1ccc(-n2c(C)nnc2SCC(=O)Nc2ccccc2)cc1 | 0.00869
Cc1cc(C(=O)Nc2ccc(S(=O)(=O)Nc3onc(C)c3C)cc2)cs1 | 0.223
COC(=O)c1ccc(NC(=O)c2ccc(F)cc2)o1 | 0.176
O=C(Cn1ccc([N+](=O)[O-])n1)Nc1nccs1 | -0.0401
COc1ccc(-c2noc(CSc3nc(N)c(-c4ccccc4)c(=O)[nH]3)n2)cc1 | -0.223
Cc1scc(-c2n[nH]c(=S)n2Cc2ccccc2)c1C | 0.854
Nc1nc(-c2ccccc2)cc(N2CCCCC2)n1 | 0.464
C(=C\c1ccccc1)/CSc1nnc(-c2ccccn2)n1Cc1ccco1 | -1.42
CC(C)P(=O)(c1cccc(C(=O)O)c1)C(C)C | -0.0351

SMILES | z-score
Nc1nnc(CCC2CCCCC2)s1 | 0.128
CCOC(=O)/C(=C/c1ccc(Cl)cc1)NC(=O)c1ccco1 | -0.468
O=S(=O)(NCCNS(=O)(=O)c1ccc(F)cc1)c1ccc(F)cc1 | -0.266
Cc1c(C(=O)N2CCC(C)CC2)sc2ncnc(N3CCN(c4ccccc4)CC3)c12 | -0.332
Cc1ccccc1Oc1nnc(-c2cccs2)c2ccccc12 | -0.216
Cc1ccc(N=c2c([N+](=O)[O-])nn(-c3ccccc3)n2O)c(C)c1 | 0.0179
Cc1cc(NCCO)nc(N2CCOCC2)n1 | -0.11
CCOC(=O)c1csc(NC(=O)CSc2nnnn2-c2cccc(OC)c2)n1 | -0.239
C/C(=N\NC(=O)c1ccccc1)c1ccc(-n2ccnc2)cc1 | 2.25
CC1(C(=O)CSc2ncn[nH]2)CCC(=O)O1 (configuration not stated) | -0.24
CCNC(=S)NNC(=O)c1csc(CC)c1 | -0.163
Cc1ccccc1N(CC(=O)N1CCN(c2ccccc2)CC1)S(C)(=O)=O | -0.00111
COc1cc(CC(=O)Oc2ccc3c(c2)OCO3)cc(OC)c1OC | 0.612
O=C(Nc1nn(Cc2ccc(Cl)cc2)cc1Br)c1ccc(COc2ccccc2Cl)o1 | -0.058
CCOC(=O)Cc1c(Sc2ccccc2)c2cc(C)ccc2n1C | -0.169
COc1ccc(N=C2C(=O)Nc3ccccc32)cc1 | -0.886
CC(=O)Nc1ccc(OCC(O)CNC2CCCC2)cc1 (configuration not stated) | -0.0845
Cc1ccc(N(CC(=O)NC2CCCC2)C(=O)c2c(C)noc2C)cc1C | -0.905
CC(c1ccccn1)N(CCN(C)C)C(=S)Nc1cccc(F)c1 (configuration not stated) | -0.231
Nc1c(N(C(=O)Nc2ccc(Cl)c(Cl)c2)C2CCCC2)c(=O)[nH]c(=O)n1Cc1ccccc1 | 0.249
CCOc1ccc(NC(=S)N/N=C(\C)Cc2ccc(OC)cc2)cc1 | 1.35
CCCCc1cc(=O)oc2cc(C)cc(OC(C)C(=O)O)c12 (configuration not stated) | -0.37
COc1ccc(-c2cc(=O)[nH][nH]2)cc1OC | -0.295

SMILES | z-score
CC(=O)C1C(c2ccc(Cl)cc2)NC(=O)NC1(O)C(F)(F)F (configuration not stated) | -0.503
C/C(=N/Oc1nc(C)cc(C)n1)c1ccccc1 | -0.437
Cc1ccc2cc(C#N)c(N3CCCN(S(=O)(=O)c4ccc(F)cc4)CC3)nc2c1 | 0.227
O=C(COC(=O)c1ccccc1Nc1ccccc1)NCc1ccccc1 | -0.246
S=C(Nc1ccc(Cl)cc1)N(CCCN1CCOCC1)Cc1ccco1 | -0.557
CCOC(=O)CC(NC(=O)c1ccco1)c1ccc(OC)cc1 (configuration not stated) | -0.109
CCCOC(=O)c1cccc(NC(=O)C(C)(C)C)c1 | 0.872
COc1ccc(CCn2c(-c3cc([N+](=O)[O-])cc([N+](=O)[O-])c3)nc3nc4ccccc4nc32)cc1OC | -0.213
COc1ccc(Cn2cc3c(-c4ccc(F)cc4)nnc-3c3cc(OC)c(OC)cc32)cc1 | 0.539
FC(F)(F)c1cc(Sc2ccccc2)nc(-c2ccccn2)n1 | -0.349
CCc1ccc(CSc2nccn2-c2ccccc2)cc1 | -0.445
CCOC(=O)C1=C(O)CSC1=Nc1cccc(Cl)c1 | -2.45
CCCCNC(=O)Nc1cc(C(F)(F)F)c[nH]c1=O | 0.793
COc1cc(NS(=O)(=O)c2ccc(NC(=O)NC3CCCCC3)cc2)nc(OC)n1 | -0.233
S=C(NCc1ccco1)N/N=C/c1ccccc1Cl | 2.22
COc1ccc(CN(C(=S)Nc2ccccc2)C2CC(=O)N(c3ccc(Cl)cc3)C2=O)cc1 (configuration not stated) | 0.0406
COc1ccc(/C=C(\C#N)C(=O)NCCCn2ccnc2)cc1 | -0.164
CCCCOC(=O)Cn1c(=O)n(CC(=O)OCCCC)c2ccccc21 | -0.288
Cc1cc([N+](=O)[O-])c(NC2CCCCC2)c([N+](=O)[O-])c1 | -0.257
CCOC(=O)c1cc2occc2n1Cc1c(F)cccc1Cl | 0.0931
